{"source": "paper PMC8329197", "about": "“Compounds targeting OSBPL7 increase ABCA1-dependent cholesterol efflux preserving kidney function in two models of kidney disease” (Nature Communications, 2021)", "key": {"human THP1 macrophages": {"test_system": "human THP1 macrophages", "experiment": "apoAI-mediated (ABCA1) cholesterol efflux from cholesterol-loaded THP1 macrophages", "assay_type": "cell-based", "design": "ABCA1 Efflux %: dose or concentration left out as unconfirmed"}, "OSBPL7": {"test_system": "T1, OSBPL7", "T1 construct": "Plasmids expressing each as a full-length protein with a C-terminal FLAG tag were obtained; expressed in transfected cells; host or cells: HEK293", "experiment": "Competition with ^3H-Cpd K UV cross-linking to FLAG-tagged OSBPL7 in HEK293 cells (immunoprecipitation, autoradiography)", "assay_type": "binding, human", "design": "OSBPL7 Competition %: dose or concentration left out as unconfirmed", "details": "average(SEM)", "protocol": "Briefly, a plasmid expressing a candidate target of interest fused with a FLAG tag was transfected into HEK293 cells. After 24 h, tritiated compound K at a concentration capable of inducing ABCA1-mediated cholesterol efflux (1.0 μM) was added for 3 h, then the live cells were exposed to UV-light (ʎ = 336 nm) to query potential compound/target cross-linking in situ. Cell lysates were prepared, the expressed protein was then selectively immunoprecipitated using an anti-FLAG antibody coupled to sepharose beads, bound proteins were separated by SDS-PAGE, and two identical blots were prepared and probed by western blot and by autoradiography to detect protein expression and presence or absence of compound crosslinking, respectively. The flow chart of this screen is illustrated in Fig. 2. Figure 2d illustrates the ability of Cpd A and Cpd G to displace tritiated Cpd K from overexpressed and immunoprecipitated OSBPL7. Figure 3b illustrates the use of this assay to detect binding of tritiated Cpd K to overexpressed and immunoprecipitated variants of OSBPL7 containing point mutations in the predicted oxysterol binging pocket of OSBPL7. […]"}, "Col4a3 KO mice": {"test_system": "Col4a3 KO mice", "experiment": "Alport syndrome model: ACR, serum creatinine, BUN, body weight (also vs ramipril)", "details": "Col4A3 KO, age 8 weeks, Cpd G 100 mg/Kg/day 28 days"}, "[1]": {"details": "5 µM, THP1 cells, single experiments"}}, "note": "Where “and” joins values, the source holds several entries; their conditions need not be identical. Equal values may be shown once."}
{"smiles": "O=C(N[C@@H]1CCCC[C@H]1O)c1cnc(OCC(F)(F)F)c(-c2ccc(Cl)c(Cl)c2)c1", "note": "[Cpd G]", "values": [{"measurement": "ApoA1-mediated Cholesterol Efflux (Fold increase over vehicle control), mean", "setting": "human THP1 macrophages; 5 µM, THP1 cells, mean of 3", "result": 1.952, "unit": "fold"}, {"measurement": "ApoA1-mediated Cholesterol Efflux (%)", "setting": "human THP1 macrophages; [1]", "result": "7.42% and 3.8% and 3.1%"}, {"measurement": "ApoA1-mediated Cholesterol Efflux (Fold increase over vehicle control)", "setting": "human THP1 macrophages; [1]", "result": "2.587 fold and 1.569 fold and 1.699 fold"}, {"measurement": "ABCA1 Efflux %", "setting": "human THP1 macrophages; average(SEM)", "result": "99(7.7) %"}, {"measurement": "OSBPL7 Competition %", "setting": "OSBPL7", "result": "78(6.1) %"}, {"measurement": "ACR values (mg Albumin / mg Creatinine), Median", "setting": "Col4a3 KO mice", "result": "4.895 mg Albumin / mg Creatinine"}]}
